Measurements taken from publication PMC4336329 (PLoS ONE, 2015).
In all, about 310,000 compounds went through this assay and about 2,200 (0.71%) showed an effect of 50% or more. Effects have a minus sign here. The list shows a part of the results.

Target: human ether-à-go-go-related gene (hERG) potassium channel (human, UniProt Q12809)
Experiment: primary screen, population patch clamp on CHO cells stably expressing hERG

Sequence of human ether-à-go-go-related gene (hERG) potassium channel (Q12809 whole entry, looked up): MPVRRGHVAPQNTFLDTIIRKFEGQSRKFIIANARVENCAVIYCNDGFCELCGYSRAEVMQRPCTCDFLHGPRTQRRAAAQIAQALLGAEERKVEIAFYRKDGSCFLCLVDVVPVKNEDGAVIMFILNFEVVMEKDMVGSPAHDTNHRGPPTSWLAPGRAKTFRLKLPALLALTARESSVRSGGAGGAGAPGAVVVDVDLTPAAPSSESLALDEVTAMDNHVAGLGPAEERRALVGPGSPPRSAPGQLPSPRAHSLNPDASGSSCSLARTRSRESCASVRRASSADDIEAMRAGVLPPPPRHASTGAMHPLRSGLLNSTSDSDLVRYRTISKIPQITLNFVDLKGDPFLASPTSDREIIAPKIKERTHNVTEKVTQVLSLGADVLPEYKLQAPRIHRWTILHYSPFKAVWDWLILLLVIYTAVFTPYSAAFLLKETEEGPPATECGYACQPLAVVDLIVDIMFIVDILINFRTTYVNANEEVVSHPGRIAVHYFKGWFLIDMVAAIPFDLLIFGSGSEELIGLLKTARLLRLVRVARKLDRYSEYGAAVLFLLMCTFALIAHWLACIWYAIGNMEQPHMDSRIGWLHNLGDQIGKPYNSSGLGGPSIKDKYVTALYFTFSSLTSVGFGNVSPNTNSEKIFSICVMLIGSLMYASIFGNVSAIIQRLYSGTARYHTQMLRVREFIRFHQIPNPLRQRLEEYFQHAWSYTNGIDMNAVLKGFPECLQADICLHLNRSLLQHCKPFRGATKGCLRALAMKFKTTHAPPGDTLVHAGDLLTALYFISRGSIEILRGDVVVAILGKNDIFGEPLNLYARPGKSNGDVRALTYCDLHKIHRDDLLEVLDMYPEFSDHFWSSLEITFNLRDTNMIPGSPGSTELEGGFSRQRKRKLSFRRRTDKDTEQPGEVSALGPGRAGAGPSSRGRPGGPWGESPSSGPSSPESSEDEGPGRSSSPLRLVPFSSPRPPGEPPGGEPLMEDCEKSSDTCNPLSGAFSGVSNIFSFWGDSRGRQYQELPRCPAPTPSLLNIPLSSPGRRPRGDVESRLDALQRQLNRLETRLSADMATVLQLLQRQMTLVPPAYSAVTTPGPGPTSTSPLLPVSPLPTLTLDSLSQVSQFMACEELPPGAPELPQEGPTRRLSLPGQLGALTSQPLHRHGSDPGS

SMILES | hERG current change (%, negative = inhibition) at 1uM [%]
CS(=O)(=O)N1CCc2cc(C(=O)Nc3ccccc3)ccc21 | 0.329
Cc1cccc(Cl)c1OCCCCn1ccnc1 | -5.39
O=C(NCCCn1ccnc1)c1cc(S(=O)(=O)N2CCOCC2)ccc1F | 13.4
CCc1nnc(NC(=O)CC(C)c2ccccc2)s1 (centres unmarked) | 13.6
CC(C)(C)[C@H]1CCC(=O)N([C@H](CSc2ccccc2)Cc2ccccc2)CC1 | 4.35
CCOCCCNC(=O)c1ccc(NC(=O)C2CCCO2)cc1 (centres unmarked) | 6.45
Cc1[nH]c2ccc(C(=O)N3CCCC3)cc2c1C | 6.09
O=c1[nH]c(Cc2ccccc2)nc2ccccc12 | 5.95
C=CCOC(=O)COc1ccc2c(C)c(C)c(=O)oc2c1 | 5.01
CCOC(=O)N1CCN(c2c(NCc3cccs3)c(=O)c2=O)CC1 | 15.5
N/C(=N\O)c1ccccc1N1CCCCC1 | -2.58
Cn1c(SCC(=O)C(C)(C)C)nnc1-c1ccc(F)cc1 | 10.4
O=C(CCCN1C(=O)/C(=C\c2ccco2)SC1=S)Nc1ccc(O)cc1C(=O)O | 16.7
C=CCN1C=C2C(=O)C(C)(OC(=O)c3cccs3)C(=O)C=C2C=C1CCCC(=O)OC (centres unmarked) | 14
COc1ccccc1S(=O)(=O)Cc1ccc(C(=O)NCc2ccc(C)cc2)o1 | 1.61
Cn1c(=O)c2c(nc(SCCN3CCOCC3)n2Cc2cccc3ccccc23)n(C)c1=O | 1.03
Cn1nc(CC(=O)NC2CCCCCCCCCCC2)c2ccccc2c1=O | 6.92
CC(=O)OC1=CC[C@H]2[C@@H]3CC[C@H]4C[C@H](OC(C)=O)[C@@H](OC(C)=O)C[C@]4(C)[C@H]3CC[C@]12C | 10.7
Cl.O=C(NC12CC3CC(CC(C3)C1)C2)OC1CN2CCC1CC2 (centres unmarked) | 5.59
COC(=O)C(Cc1ccccc1)NC(=O)c1cc(=O)[nH]c2ccccc12 (centres unmarked) | 5.59
CC(C)Oc1ccc(C(=O)NCC(=O)OCC(=O)N(C)Cc2cccs2)cc1 | -0.219
CC[C@@]12C(=O)N(c3ccc(OC)cc3)C(=O)N1[C@H](c1ccc(Cl)cc1)[C@@H]1C(=O)N(C3CCCCC3)C(=O)[C@@H]12 | 4.01

SMILES | hERG current change (%, negative = inhibition) at 1uM [%]
O=C(NC1CCCN(c2ccc(C(F)(F)F)cn2)C1)c1ccncc1 (centres unmarked) | -51.8
Cc1cnc(CNC(=O)c2ccc3oc(Cc4ccccc4)nc3c2)[nH]1 | 13.4
COC(=O)CN(c1cccc(C(C)=O)c1)S(C)(=O)=O | 7.91
O=C(N/N=C/c1cc(Br)cc(Br)c1O)c1cccc(N2CCCC2=O)c1 | 10.2
Cc1cccn2c(=O)c3cc(C(=O)NC4CCCCC4)c(=N)n(Cc4ccc(F)cc4)c3nc12 | -16
Oc1ccc(/C=N/n2cnn(Cc3ccccc3Cl)c2=S)c(O)c1 | 10.5
O=S(=O)(NCc1ccco1)N1CCOCC1 | 8.35
COc1ccc(C2=NOC(Cn3nc(-c4ccccc4C)cc3C(=O)O)C2)cc1 (centres unmarked) | 1.1
Cc1ccc(C(=O)Nc2cccc(S(=O)(=O)N3CCOCC3)c2)cc1[N+](=O)[O-] | 15.7
O=C(Cn1cc2c(n1)CCCCC2)Nc1ccccc1Cl | 3.09
Cc1cc(C(F)(F)F)nn1Cc1n[nH]c(=S)n1Cc1ccccc1 | 1.45
Cn1nc(-c2ccc(OCC(=O)NCC3CCCO3)cc2)c2ccccc2c1=O (centres unmarked) | -2.28
O=C(O)CCC1(CCC(=O)O)c2ccccc2-c2ccccc21 | 7.08
Cn1c(/C=C/c2cccc(Br)c2)nc2ccccc2c1=O | 15
Cc1ccsc1C(=O)OCC(=O)c1ccc[nH]1 | 6.23
CC(=O)Nc1ccc(NC(=O)N2CCCCC2)cc1 | 0.414
Cn1c(CN2CCOCC2)nnc1SCC(=O)Nc1nccs1 | 9.59
CC(=O)c1ccc(N=C2NC(=O)C(CO)(CO)S2)cc1 | 3.27
CC1CCN(S(=O)(=O)c2ccc(N/N=C(/C#N)C(N)=O)cc2)CC1 | 10.7
CS(=O)(=O)c1ccc(NCCN2CCOCC2)c([N+](=O)[O-])c1 | 15.9
Clc1ccc(CNCc2cccs2)c(Cl)c1 | 17.8
Cc1ccc(/C=C2/SC(=S)N(CCC(=O)N3CCOCC3)C2=O)cc1 | 12.9
